Results published in paper PMC1769496.
No constants are given. Whether binding was seen depends on the method and setting. Binding seen in cells or lysates may run through a third protein. Some results given as binding are weak or reduced against the parent protein; the word gives no strength. For part of these data: Sequences can lack the tags named with a protein.

The chains behind the UniProt entries cited, without tags or fusion partners.
UniProt Q13153: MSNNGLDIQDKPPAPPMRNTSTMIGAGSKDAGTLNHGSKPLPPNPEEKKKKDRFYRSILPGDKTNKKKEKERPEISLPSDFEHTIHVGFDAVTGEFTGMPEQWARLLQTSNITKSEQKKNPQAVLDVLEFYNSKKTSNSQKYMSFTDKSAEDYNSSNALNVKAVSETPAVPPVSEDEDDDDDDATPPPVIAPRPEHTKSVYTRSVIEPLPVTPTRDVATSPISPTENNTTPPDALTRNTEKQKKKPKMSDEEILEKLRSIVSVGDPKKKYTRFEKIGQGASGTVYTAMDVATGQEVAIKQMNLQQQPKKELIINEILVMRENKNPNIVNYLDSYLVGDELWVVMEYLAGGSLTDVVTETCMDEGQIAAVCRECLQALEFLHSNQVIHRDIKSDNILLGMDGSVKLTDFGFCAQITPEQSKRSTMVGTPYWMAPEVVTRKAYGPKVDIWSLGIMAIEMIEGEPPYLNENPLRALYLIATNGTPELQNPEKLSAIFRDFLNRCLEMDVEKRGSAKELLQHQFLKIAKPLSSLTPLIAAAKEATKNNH
UniProt Q9NZN5: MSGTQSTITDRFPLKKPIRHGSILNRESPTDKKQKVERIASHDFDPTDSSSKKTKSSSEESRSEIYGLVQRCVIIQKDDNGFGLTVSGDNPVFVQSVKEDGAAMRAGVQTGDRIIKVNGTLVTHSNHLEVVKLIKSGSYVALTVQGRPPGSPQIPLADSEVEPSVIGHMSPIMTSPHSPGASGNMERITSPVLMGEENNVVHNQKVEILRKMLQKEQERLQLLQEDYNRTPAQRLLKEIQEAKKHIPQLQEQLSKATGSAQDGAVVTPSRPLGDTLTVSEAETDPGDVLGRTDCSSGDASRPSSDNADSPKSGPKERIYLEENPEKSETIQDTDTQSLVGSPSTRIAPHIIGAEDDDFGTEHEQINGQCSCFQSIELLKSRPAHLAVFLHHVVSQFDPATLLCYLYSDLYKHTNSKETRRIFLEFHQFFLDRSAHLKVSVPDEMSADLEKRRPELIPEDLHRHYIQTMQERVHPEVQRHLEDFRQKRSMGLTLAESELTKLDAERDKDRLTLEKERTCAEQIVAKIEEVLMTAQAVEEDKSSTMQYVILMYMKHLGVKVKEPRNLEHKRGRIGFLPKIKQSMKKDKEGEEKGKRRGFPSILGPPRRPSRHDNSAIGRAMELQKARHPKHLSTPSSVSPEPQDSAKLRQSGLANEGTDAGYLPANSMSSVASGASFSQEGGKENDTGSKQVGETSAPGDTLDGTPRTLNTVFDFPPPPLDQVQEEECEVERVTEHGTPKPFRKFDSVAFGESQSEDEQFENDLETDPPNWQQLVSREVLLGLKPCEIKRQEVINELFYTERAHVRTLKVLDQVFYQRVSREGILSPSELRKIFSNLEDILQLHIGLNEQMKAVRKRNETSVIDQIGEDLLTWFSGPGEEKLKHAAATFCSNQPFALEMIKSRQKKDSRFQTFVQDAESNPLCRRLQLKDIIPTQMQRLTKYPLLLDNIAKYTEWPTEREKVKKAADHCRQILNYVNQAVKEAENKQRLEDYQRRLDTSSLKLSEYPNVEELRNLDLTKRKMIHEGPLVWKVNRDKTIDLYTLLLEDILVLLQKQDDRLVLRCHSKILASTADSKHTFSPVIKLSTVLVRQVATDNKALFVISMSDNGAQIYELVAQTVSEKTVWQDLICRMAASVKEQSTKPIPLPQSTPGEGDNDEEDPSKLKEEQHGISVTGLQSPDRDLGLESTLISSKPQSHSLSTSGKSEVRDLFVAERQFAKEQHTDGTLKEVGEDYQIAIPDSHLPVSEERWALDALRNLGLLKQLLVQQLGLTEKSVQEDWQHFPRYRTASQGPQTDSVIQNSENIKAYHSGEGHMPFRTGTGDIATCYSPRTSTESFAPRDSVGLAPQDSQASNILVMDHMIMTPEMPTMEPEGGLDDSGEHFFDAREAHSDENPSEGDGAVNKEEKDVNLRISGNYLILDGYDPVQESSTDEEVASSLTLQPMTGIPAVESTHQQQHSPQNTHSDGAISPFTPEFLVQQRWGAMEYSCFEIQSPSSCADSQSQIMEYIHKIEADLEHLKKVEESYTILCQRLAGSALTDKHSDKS
UniProt O15085: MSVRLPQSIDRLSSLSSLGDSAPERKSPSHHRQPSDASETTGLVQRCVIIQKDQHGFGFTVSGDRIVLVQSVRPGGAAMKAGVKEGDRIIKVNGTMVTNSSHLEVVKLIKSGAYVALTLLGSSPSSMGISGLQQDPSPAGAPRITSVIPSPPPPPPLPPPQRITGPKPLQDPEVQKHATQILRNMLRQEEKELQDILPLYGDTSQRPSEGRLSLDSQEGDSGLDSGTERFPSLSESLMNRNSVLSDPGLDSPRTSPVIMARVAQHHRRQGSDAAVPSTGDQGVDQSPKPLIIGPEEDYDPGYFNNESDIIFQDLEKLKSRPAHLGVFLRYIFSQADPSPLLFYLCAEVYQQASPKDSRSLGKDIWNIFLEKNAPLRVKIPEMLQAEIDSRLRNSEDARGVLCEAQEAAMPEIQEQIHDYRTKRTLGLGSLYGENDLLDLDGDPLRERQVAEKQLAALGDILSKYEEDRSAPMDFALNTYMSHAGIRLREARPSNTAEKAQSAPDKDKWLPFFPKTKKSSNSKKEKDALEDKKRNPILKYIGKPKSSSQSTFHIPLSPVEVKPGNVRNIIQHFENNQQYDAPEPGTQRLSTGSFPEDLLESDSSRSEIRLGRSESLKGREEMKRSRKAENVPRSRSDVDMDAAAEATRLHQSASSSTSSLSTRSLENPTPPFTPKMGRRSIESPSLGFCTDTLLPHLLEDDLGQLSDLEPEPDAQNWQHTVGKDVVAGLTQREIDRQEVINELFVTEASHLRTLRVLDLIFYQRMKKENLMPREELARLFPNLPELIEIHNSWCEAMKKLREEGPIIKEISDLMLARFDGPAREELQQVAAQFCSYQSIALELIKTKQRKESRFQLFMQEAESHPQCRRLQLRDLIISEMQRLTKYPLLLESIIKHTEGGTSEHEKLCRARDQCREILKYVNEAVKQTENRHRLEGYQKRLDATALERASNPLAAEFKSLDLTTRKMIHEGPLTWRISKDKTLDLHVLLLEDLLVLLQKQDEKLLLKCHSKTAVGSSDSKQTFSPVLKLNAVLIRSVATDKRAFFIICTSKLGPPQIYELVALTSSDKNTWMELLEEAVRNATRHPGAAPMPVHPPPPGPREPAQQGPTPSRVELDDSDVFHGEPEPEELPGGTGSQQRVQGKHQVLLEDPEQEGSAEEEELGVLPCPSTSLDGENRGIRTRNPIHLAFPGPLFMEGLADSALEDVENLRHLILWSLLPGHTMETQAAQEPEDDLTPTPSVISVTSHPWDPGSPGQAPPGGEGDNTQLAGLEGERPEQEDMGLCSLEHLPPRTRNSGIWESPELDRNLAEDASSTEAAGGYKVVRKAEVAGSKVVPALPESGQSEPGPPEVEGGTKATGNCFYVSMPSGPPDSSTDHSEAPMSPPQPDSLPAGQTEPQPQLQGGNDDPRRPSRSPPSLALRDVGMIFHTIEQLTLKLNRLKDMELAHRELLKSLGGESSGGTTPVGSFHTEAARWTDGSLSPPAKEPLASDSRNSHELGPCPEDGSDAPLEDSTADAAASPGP

T1: AU1-tagged full length P115RhoGEF (UniProt Q92888)
T1 sequence: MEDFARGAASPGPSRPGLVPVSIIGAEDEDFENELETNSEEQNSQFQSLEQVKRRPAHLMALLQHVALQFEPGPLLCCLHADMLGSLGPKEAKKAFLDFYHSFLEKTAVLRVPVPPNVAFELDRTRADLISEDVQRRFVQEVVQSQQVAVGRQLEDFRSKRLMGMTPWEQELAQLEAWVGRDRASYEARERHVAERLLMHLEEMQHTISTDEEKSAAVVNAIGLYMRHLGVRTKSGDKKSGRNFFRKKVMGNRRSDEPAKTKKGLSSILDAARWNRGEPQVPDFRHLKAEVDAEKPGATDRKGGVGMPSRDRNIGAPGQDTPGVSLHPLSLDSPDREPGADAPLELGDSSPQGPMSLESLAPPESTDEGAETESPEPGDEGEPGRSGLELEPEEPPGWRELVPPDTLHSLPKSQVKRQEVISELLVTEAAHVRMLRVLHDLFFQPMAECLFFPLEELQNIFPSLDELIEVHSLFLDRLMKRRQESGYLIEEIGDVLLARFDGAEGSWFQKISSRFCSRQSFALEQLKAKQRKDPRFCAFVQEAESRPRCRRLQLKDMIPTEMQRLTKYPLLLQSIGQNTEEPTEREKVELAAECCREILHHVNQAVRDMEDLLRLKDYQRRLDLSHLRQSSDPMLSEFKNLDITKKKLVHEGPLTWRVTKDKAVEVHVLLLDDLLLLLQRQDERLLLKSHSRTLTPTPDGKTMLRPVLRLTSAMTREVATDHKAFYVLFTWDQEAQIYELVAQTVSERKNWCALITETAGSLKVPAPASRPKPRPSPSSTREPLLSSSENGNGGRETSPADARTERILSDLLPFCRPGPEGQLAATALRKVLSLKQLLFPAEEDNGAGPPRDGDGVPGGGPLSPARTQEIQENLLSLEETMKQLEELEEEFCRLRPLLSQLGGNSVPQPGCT


Assays:
[1] = molecular target: wild-type myc tagged Pak1 (UniProt Q13153); experiment: co-IP; HEK293T cells co-transfected with GFP-tagged GEFs and myc-Pak1, with or without activated Rac (RacQL); lysates precipitated with anti-myc, blotted with anti-GFP
[2] = molecular target: T1, AU1-tagged full length P115RhoGEF; experiment: co-IP; HEK293T cells co-transfected with P115RhoGEF and myc-Pak1, with or without activated Rac (RacV12); lysates precipitated with anti-AU1, blotted with anti-Pak1
[3] = molecular target: wild-type myc tagged Pak1 (UniProt Q13153); experiment: co-IP; HEK293T cells co-transfected with AU1-tagged P115RhoGEF deletion constructs or DH-PH domains and myc-Pak1, with or without activated Rac (RacQL); lysates precipitated with anti-myc, blotted with anti-AU1

Row | Molecule | binding [1] | binding [3] | other results
1 | GFP-LARG (from UniProt Q9NZN5 1-1544) | no binding | – | –
2 | wild-type myc tagged Pak1 (from UniProt Q13153 1-545) (enzyme) | – | – | binding [2]: binds
3 | P115RhoGEF with deletion of the C-terminus (AU1-tagged) (domain or fragment, UniProt Q92888 1-771) MEDFARGAASPGPSRPGLVPVSIIGAEDEDFENELETNSEEQNSQFQSLEQVKRRPAHLMALLQHVALQFEPGPLLCCLHADMLGSLGPKEAKKAFLDFYHSFLEKTAVLRVPVPPNVAFELDRTRADLISEDVQRRFVQEVVQSQQVAVGRQLEDFRSKRLMGMTPWEQELAQLEAWVGRDRASYEARERHVAERLLMHLEEMQHTISTDEEKSAAVVNAIGLYMRHLGVRTKSGDKKSGRNFFRKKVMGNRRSDEPAKTKKGLSSILDAARWNRGEPQVPDFRHLKAEVDAEKPGATDRKGGVGMPSRDRNIGAPGQDTPGVSLHPLSLDSPDREPGADAPLELGDSSPQGPMSLESLAPPESTDEGAETESPEPGDEGEPGRSGLELEPEEPPGWRELVPPDTLHSLPKSQVKRQEVISELLVTEAAHVRMLRVLHDLFFQPMAECLFFPLEELQNIFPSLDELIEVHSLFLDRLMKRRQESGYLIEEIGDVLLARFDGAEGSWFQKISSRFCSRQSFALEQLKAKQRKDPRFCAFVQEAESRPRCRRLQLKDMIPTEMQRLTKYPLLLQSIGQNTEEPTEREKVELAAECCREILHHVNQAVRDMEDLLRLKDYQRRLDLSHLRQSSDPMLSEFKNLDITKKKLVHEGPLTWRVTKDKAVEVHVLLLDDLLLLLQRQDERLLLKSHSRTLTPTPDGKTMLRPVLRLTSAMTREVATDHKAFYVLFTWDQEAQIYELVAQTVSERKNWCALITETAGSLKVPAPASRP | – | binds | –
4 | P115RhoGEF ΔN (AU1-tagged) (domain or fragment, UniProt Q92888 352-912) QGPMSLESLAPPESTDEGAETESPEPGDEGEPGRSGLELEPEEPPGWRELVPPDTLHSLPKSQVKRQEVISELLVTEAAHVRMLRVLHDLFFQPMAECLFFPLEELQNIFPSLDELIEVHSLFLDRLMKRRQESGYLIEEIGDVLLARFDGAEGSWFQKISSRFCSRQSFALEQLKAKQRKDPRFCAFVQEAESRPRCRRLQLKDMIPTEMQRLTKYPLLLQSIGQNTEEPTEREKVELAAECCREILHHVNQAVRDMEDLLRLKDYQRRLDLSHLRQSSDPMLSEFKNLDITKKKLVHEGPLTWRVTKDKAVEVHVLLLDDLLLLLQRQDERLLLKSHSRTLTPTPDGKTMLRPVLRLTSAMTREVATDHKAFYVLFTWDQEAQIYELVAQTVSERKNWCALITETAGSLKVPAPASRPKPRPSPSSTREPLLSSSENGNGGRETSPADARTERILSDLLPFCRPGPEGQLAATALRKVLSLKQLLFPAEEDNGAGPPRDGDGVPGGGPLSPARTQEIQENLLSLEETMKQLEELEEEFCRLRPLLSQLGGNSVPQPGCT | – | binds | –

Second part, led by results:

Row | binding [1] | binding [3] | Molecule | other results
5 | no binding | – | GFP-PDZ-RhoGEF (from UniProt O15085 1-1522) | –
6 | – | binds | AU1-tagged DH-PH domain of P115RhoGEF (domain or fragment, UniProt Q92888 351-771) PQGPMSLESLAPPESTDEGAETESPEPGDEGEPGRSGLELEPEEPPGWRELVPPDTLHSLPKSQVKRQEVISELLVTEAAHVRMLRVLHDLFFQPMAECLFFPLEELQNIFPSLDELIEVHSLFLDRLMKRRQESGYLIEEIGDVLLARFDGAEGSWFQKISSRFCSRQSFALEQLKAKQRKDPRFCAFVQEAESRPRCRRLQLKDMIPTEMQRLTKYPLLLQSIGQNTEEPTEREKVELAAECCREILHHVNQAVRDMEDLLRLKDYQRRLDLSHLRQSSDPMLSEFKNLDITKKKLVHEGPLTWRVTKDKAVEVHVLLLDDLLLLLQRQDERLLLKSHSRTLTPTPDGKTMLRPVLRLTSAMTREVATDHKAFYVLFTWDQEAQIYELVAQTVSERKNWCALITETAGSLKVPAPASRP | –
